The campaign covered roughly 52,000 compounds. About 1,700 (3.3%) were called active. No stated cut-off is given here; in the data, active means survival mostly below about 52% (no sharp cut-off); inactive means mostly above about 56%. Some of the results follow.
Each compound was assayed on Wild type (assay: S. aureus survival, RN4220 and DeltatarO strains – OD600, teichoic acid synthesis inhibitors, primary screen (AID 463173)). Conditions: S. aureus RN4220 wild type/DeltatarO growth, OD600, 18 h, active compounds read low, screened at 18.75 µg/mL (by protocol).

Row | SMILES | survival
1 | COc1ccc(OC)c(S(=O)(=O)Nc2cc3c(cc2C)n(C)c(=O)c(=O)n3C)c1 | inactive: 82%
2 | CCc1ccc(-c2cn3c(n2)sc2cc(C(=O)NCCc4ccc(OC)cc4OC)ccc23)cc1 | inactive: 78%
3 | COc1ccccc1NC(=O)Cn1c(=O)n(Cc2ccc3c(c2)OCO3)c(=O)c2oc3ccccc3c21 | inactive: 74%
4 | O=C(c1noc2c1CCCCC2)N1CCN(c2ccc(Cl)cc2)CC1 | inactive: 73%
5 | c1ccc(Cn2nnnc2C(c2ccccc2)N2CCN(Cc3ccncc3)CC2)cc1 (stereo not given) | inactive: 100%
6 | C#CC(C)(C)NS(=O)(=O)c1cc(-c2nnc(Nc3ccc(C)cc3)c3ccccc23)ccc1C | inactive: 96%
7 | Cc1ccc(NC(=O)NCc2ccc3c(c2)CCN3C(=O)c2ccccc2)c(Cl)c1 | inactive: 84%
8 | Cc1ccc(NC(=O)CN(c2ccccc2)S(=O)(=O)N(C)C)cc1Cl | inactive: 67%
9 | COc1ccc(NC(=O)c2cn(CC(C)C)c(=O)c3cc(OC)c(OC)cc23)cc1Cl | inactive: 67%
10 | NS(=O)(=O)c1ccc(CCNC(=O)CCCCCn2c(=O)[nH]c3ccccc3c2=O)cc1 | inactive: 83%
11 | COc1ccc2oc(=O)c(C(=O)NCc3cccnc3)cc2c1 | inactive: 96%
12 | Cc1ccc(NC(=O)c2nn(C)c3c2CS(=O)(=O)c2ccccc2-3)c(Cl)c1 | inactive: 86%
13 | O=C(CCCCCn1c(=O)c2sccc2n(CC(=O)Nc2cccc(Cl)c2)c1=O)NCc1ccc2c(c1)OCO2 | inactive: 67%
14 | CCCC(=O)C1=C(O)C(C(=O)OC)C(C)(C)CC1=N (stereo not given) | inactive: 111%
15 | COc1ccc(-c2nc3c(c(SCC(=O)Nc4ccc(C(=O)O)cc4)n2)Cc2ccccc2O3)cc1 | inactive: 75%
16 | CCOC(=O)Cc1ccc(NC(=O)Nc2cccc(OCc3cc(=O)n4cc(C)ccc4n3)c2)cc1 | inactive: 81%
17 | Cc1nc(N2CCOCC2)c2c(C(=O)NCc3cccc(Cl)c3)c(C)oc2n1 | inactive: 73%
18 | Oc1c(C(c2ccccc2)N2CCC3(CC2)OCCO3)sc2nc(-c3ccco3)nn12 (stereo not given) | inactive: 73%
19 | CCc1c(C)sc2c1CCN(C(=O)Nc1cc(OC)c(OC)c(OC)c1)C2c1ccccc1 (stereo not given) | inactive: 19%
20 | COc1cccc(C(=O)NC2(C(F)(F)F)C(=O)Nc3c2c(=O)[nH]c(=O)n3-c2ccc(C)cc2)c1 (stereo not given) | inactive: 78%
21 | CCc1cccc(NC(=O)CSc2ncc3c(n2)-c2ccc(Cl)cc2N(Cc2ccccc2)S3(=O)=O)c1 | inactive: 101%
22 | CCc1ccc(NC(=O)C(NS(=O)(=O)c2cccs2)C(C)C)cc1 (stereo not given) | inactive: 75%

Row | SMILES | survival
23 | CCCCN(C)CCNC(=O)c1ccc2c(=O)n(CCc3ccccc3)c(=O)[nH]c2c1 | inactive: 75%
24 | CCOC(=O)c1sc(N(C)C(C)=O)nc1C | inactive: 112%
25 | Cn1c(=O)c2c(-c3ccccc3)n3c(c2n(C)c1=O)C(c1ccccc1[N+](=O)[O-])Nc1ccccc1-3 (stereo not given) | inactive: 76%
26 | Cn1c(=O)c2c(c3ccccc31)OC(=O)CC2c1ccc(C(F)(F)F)cc1 (stereo not given) | inactive: 72%
27 | CCc1ccc2[nH]c(=O)c(CN(CCO)C(=S)NCc3ccco3)cc2c1 | inactive: 130%
28 | Cc1ccc(C(C(=O)NC2CCCCC2)N(C(=O)C2COc3ccccc3O2)c2ccc3c(c2)OCO3)o1 (stereo not given) | inactive: 101%
29 | C=CCn1c(N2CCC(C(N)=O)CC2)nc2c1c(=O)n(C)c(=O)n2C | inactive: 97%
30 | O=C(Nc1ccc2oc(-c3cccc4c(Br)cccc34)nc2c1)c1ccc(F)cc1 | inactive: 75%
31 | O=C(c1ccc2c(c1)N(Cc1ccccc1F)C(=O)c1ccccc1S2(=O)=O)N1CCOCC1 | inactive: 87%
32 | CCCN(Cc1cccs1)C(=O)Nc1cc(Cl)c(OC)cc1OC | inactive: 81%
33 | CCCN(CCC)CCCNC(=O)Cn1cnc2sc(C)c(S(=O)(=O)N3CCCCC3)c2c1=O | inactive: 88%
34 | CCOC(=O)c1oc2ccc(S(=O)(=O)n3nc(-c4ccccc4OC)cc3N)cc2c1C | inactive: 76%
35 | O=C(COC(=O)c1cc(-c2cccs2)nc2ccccc12)c1ccccc1 | inactive: 68%
36 | Cc1ccc(-c2nc3nc(C)cc(N4CCN(c5cc(Cl)ccc5C)CC4)n3n2)cc1 | inactive: 92%
37 | CCOCCCNC(=O)c1ccc2nc(CCc3ccccc3)oc2c1 | inactive: 49%
38 | COc1ccc(C2=NC3(CCCCC3)N(CC(=O)Nc3ccc(C(C)C)cc3)C2=O)cc1 | inactive: 84%
39 | COc1cccc(-n2c(SCC(=O)Nc3cc(C)ccc3C)nc3c(oc4ccccc43)c2=O)c1 | inactive: 96%
40 | COc1ccc(-c2cc(C(=O)Oc3ccccc3)c3cc(C)ccc3n2)cc1 | inactive: 11%
41 | CCn1c(=O)n(-c2ccc(C)c(F)c2)c(=O)c2sc3ccccc3c21 | inactive: 96%
42 | COc1cccc(CN2CCc3nc(Nc4ccc5c(c4)OCCO5)ncc3C2)c1 | inactive: 135%
43 | Cc1ccc2nc(N(Cc3cccnc3)C(=O)Cc3ccccc3)sc2c1 | inactive: 84%
44 | Cc1ccccc1Cn1c(SCc2ccc(C(=O)NC(C)c3ccccc3)cc2)nc2ccncc21 (stereo not given) | inactive: 95%

Row | SMILES | survival
45 | COc1cccc(C2CC(=O)Nc3cc4c(cc32)OCCO4)c1OC (stereo not given) | inactive: 83%
46 | CCOC(=O)c1ccccc1NC(=O)Cn1ncc2c([nH]c3ccccc32)c1=O | inactive: 83%
47 | CCc1ccccc1NC(=O)CCn1nc(C)c2c(C)n(-c3ccccc3)nc2c1=O | inactive: 88%
48 | COc1ccc(C(=O)CN2CCN(S(=O)(=O)c3ccc(C(C)C)cc3)CC2)cc1 | inactive: 71%
49 | Fc1ccc(NCc2cccn2-c2nnc(N3CCOCC3)s2)cc1 | inactive: 60%
50 | CC1CCN(c2ncnc3c2cnn3-c2ccc(F)cc2)CC1 | inactive: 81%
51 | CCc1ccc(-n2c(=O)c3c4c(sc3n(CC(=O)NCCCOC)c2=O)CCCC4)cc1 | inactive: 129%
52 | O=c1[nH]c2ccc(N=Cc3ccccc3C(F)(F)F)cc2[nH]1 | inactive: 116%
53 | O=C(NCCc1cccs1)c1ccc(Cn2c(SCc3ccc(F)cc3)nc3cccnc32)cc1 | inactive: 76%
54 | CCc1ccc(-c2nc(CN3CCC(C(=O)NCCc4ccc(Cl)cc4)CC3)c(C)o2)cc1 | inactive: 83%
55 | COc1cccc(NC(=O)c2sc3nc(C)c(C(=O)Nc4ccc(C)cc4C)c(-c4ccccc4Cl)c3c2N)c1 | inactive: 107%
56 | CC1CCN(C(=O)c2ccc3nc(N4C(=O)CCC4=O)sc3c2)CC1 | inactive: 105%
57 | Cc1ccc(CCNC(=O)c2ccc(NC(=O)N3CC(C)Sc4ccccc43)cc2)cc1 (stereo not given) | inactive: 72%
58 | COC(=O)C1=C(c2ccccc2)c2ccccc2S(=O)(=O)N1CC(=O)Nc1cccc(C(C)=O)c1 | inactive: 84%
59 | O=C(Nc1ccc(Cl)cc1)C1CCN(S(=O)(=O)c2ccc(Br)s2)CC1 | inactive: 60%
60 | Cc1ccccc1C(=O)Nc1ccc(C(=O)OCc2cc(=O)n3nc(C4CC4)sc3n2)cc1 | inactive: 71%
61 | COc1ccc2c(c1)c1c(c(=O)n(Cc3ccccc3)c(=O)n1Cc1ccc(C)cc1)n2C | inactive: 87%
62 | Cc1ccc(-n2ncc(C(=O)NCCCN3CCc4ccccc4C3)c2C2CCN(C(=O)OC(C)(C)C)CC2)cc1C | inactive: 73%
63 | CC(CNC(=O)CN1C(=O)COc2ccc(S(=O)(=O)N3CCCCC3)cc21)c1ccccc1 (stereo not given) | inactive: 93%
64 | CC(/C=C/c1ccco1)=N/NC(=O)Cc1cccs1 | inactive: 124%
65 | CN(CC(=O)NCc1ccccn1)S(=O)(=O)c1ccccc1 | inactive: 108%
66 | CC1CN(C(=O)Nc2ccc(C(=O)NCCc3ccccc3Cl)cc2)c2ccccc2S1 (stereo not given) | inactive: 94%

Row | SMILES | survival
67 | COC(=O)CSc1nc(N2CCOCC2)nc(N2CCOCC2)n1 | inactive: 107%
68 | O=C1CC(N2CCC(c3nc4ccccc4[nH]3)CC2)C(=O)N1 (stereo not given) | inactive: 107%
69 | CCOC(=O)C1CCN(C(=O)c2cc3ccc4ccc(C)[nH]c4c3n2)CC1 | inactive: 60%
70 | CCC(C)NC(=O)c1[nH]c2cc(OC)ccc2c1Sc1ccc(C)cc1 (stereo not given) | inactive: 84%
71 | COc1ccc(-c2cc(C(F)(F)F)n3nc(C(=O)Nc4sc5c(c4C#N)CCC(C)C5)cc3n2)cc1OC (stereo not given) | inactive: 80%
72 | CCOc1ccc(NC(=O)CC2C(=O)N(c3cccc(C)c3)C(=O)N2Cc2ccco2)cc1 (stereo not given) | inactive: 88%
73 | CC(=O)N1c2ccccc2C(=O)C1N1CCN(c2cc(Cl)ccc2C)CC1 (stereo not given) | inactive: 138%
74 | O=C(CSCc1cc(=O)c2ccccc2[nH]1)Nc1cccc(C(F)(F)F)c1 | inactive: 124%
75 | CC(=O)c1ccc(N2CCN(S(=O)(=O)c3ccc4[nH]c5c(c4c3)CCCCC5)CC2)cc1 | inactive: 81%
76 | CCOC(=O)c1cccc(NC(=O)c2cnn(-c3ccccc3)c2-n2cccc2)c1 | inactive: 63%
77 | O=C(CSc1nnnn1-c1ccc2c(c1)OCCO2)c1ccc2c(c1)OCCO2 | inactive: 103%
78 | CCC1CN(C(=O)Nc2ccccc2C(F)(F)F)c2ccccc2S1 (stereo not given) | inactive: 136%
79 | Cc1ccc(CNC(=O)c2cc(S(=O)(=O)N3CCCCC3)cn2C)cc1 | inactive: 69%
80 | Cc1ccc2nc(CN3CCN(C(=O)Nc4cccc(C)c4C)CC3)oc2c1 | inactive: 70%
81 | CCC1CN(C(=O)N2CCC(C(=O)N(C)Cc3ccccc3)CC2)c2ccccc2O1 (stereo not given) | inactive: 86%
82 | Cc1nc2c(-c3ccccc3)c(C)[nH]n2c(=O)c1Cc1ccc(C(C)C)cc1 | active: -5%
83 | CCS(=O)(=O)c1ncc(N(Cc2cccc(F)c2)Cc2ccco2)c(C(=O)Nc2ccccc2Cl)n1 | inactive: 83%
84 | COc1ccc(NC(=O)CN2C(=O)CC(c3ccco3)Sc3ccccc32)cc1OC (stereo not given) | inactive: 84%
85 | COC(=O)c1scc(-c2ccc(C)cc2)c1S(=O)(=O)Nc1c(C)cc(C)cc1C | inactive: 136%

From PubChem BioAssay AID463173 (ICCB-Longwood Screening Facility, Harvard Medical School, 2010)
